The source of these data is paper PMC10267284.

The target of test [1] is T1, REM34 (Arabidopsis thaliana) (UniProt Q84J39).
T1 sequence: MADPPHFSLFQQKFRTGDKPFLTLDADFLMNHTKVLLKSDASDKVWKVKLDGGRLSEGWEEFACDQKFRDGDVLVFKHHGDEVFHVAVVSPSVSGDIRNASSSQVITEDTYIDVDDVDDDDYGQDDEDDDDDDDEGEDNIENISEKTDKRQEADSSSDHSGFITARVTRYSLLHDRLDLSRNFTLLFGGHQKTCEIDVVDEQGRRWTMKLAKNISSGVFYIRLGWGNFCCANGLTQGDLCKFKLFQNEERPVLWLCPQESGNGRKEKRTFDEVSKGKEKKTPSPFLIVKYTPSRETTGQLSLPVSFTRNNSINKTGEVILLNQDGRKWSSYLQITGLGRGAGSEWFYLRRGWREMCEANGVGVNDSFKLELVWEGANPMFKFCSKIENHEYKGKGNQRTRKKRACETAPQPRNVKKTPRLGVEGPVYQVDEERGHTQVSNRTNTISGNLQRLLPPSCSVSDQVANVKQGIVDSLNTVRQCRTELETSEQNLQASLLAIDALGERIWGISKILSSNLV
Put plainly: two-hybrid; yeast strain AH109; bait (pGBKT7) and prey (pGADT7) co-transformed; synthetic dropout medium lacking leucine, tryptophan and histidine with 1, 2.5 or 5 mM 3-AT; 5 days at 28 °C; four independent colonies for each pair.

Test [2] concerns the target T2, TARGET OF FLC AND SVP 1 (TFS1/REM17) (Arabidopsis thaliana) (UniProt Q84WP3).
T2 sequence: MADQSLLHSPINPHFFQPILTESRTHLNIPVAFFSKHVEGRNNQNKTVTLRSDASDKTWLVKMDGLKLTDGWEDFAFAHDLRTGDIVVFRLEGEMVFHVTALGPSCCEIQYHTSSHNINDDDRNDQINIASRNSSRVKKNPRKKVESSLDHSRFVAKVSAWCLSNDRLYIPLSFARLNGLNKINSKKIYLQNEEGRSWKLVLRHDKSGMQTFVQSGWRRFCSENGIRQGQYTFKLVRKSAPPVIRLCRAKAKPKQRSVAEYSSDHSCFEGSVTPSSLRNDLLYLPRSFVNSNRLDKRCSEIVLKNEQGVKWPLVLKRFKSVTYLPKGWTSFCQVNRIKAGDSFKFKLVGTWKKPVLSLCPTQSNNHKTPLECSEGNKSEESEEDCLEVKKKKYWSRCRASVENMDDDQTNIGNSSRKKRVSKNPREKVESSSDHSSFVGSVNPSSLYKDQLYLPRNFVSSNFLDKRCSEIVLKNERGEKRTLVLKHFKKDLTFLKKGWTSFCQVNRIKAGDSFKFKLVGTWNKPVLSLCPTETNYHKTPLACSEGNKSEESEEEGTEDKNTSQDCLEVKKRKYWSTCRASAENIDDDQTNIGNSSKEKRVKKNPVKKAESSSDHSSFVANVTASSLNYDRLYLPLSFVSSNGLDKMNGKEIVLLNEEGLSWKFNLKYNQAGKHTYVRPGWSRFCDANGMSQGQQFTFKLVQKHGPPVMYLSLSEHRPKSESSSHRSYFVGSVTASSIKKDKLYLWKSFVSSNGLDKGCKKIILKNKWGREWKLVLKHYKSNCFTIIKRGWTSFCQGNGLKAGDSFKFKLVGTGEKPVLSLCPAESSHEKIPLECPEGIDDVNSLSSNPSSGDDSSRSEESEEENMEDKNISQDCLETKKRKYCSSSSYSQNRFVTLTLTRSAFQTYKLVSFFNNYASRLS
The test is described as above.

Test [3] deals with TARGET OF FLC AND SVP 1 (TFS1/REM17), BiFC fusion (Arabidopsis thaliana) (UniProt Q84WP3). As to the kind of experiment: split reporter; BiFC (pYFN43 / pYFC43) in Nicotiana benthamiana leaves infiltrated with Agrobacterium and the viral suppressor p19; confocal imaging of the abaxial surface three days after inoculation.
For test [4], the target named is REM13 (Arabidopsis thaliana) (UniProt Q9STF1). Put plainly: two-hybrid; yeast strain AH109; bait (pGBKT7) and prey (pGADT7) co-transformed; synthetic dropout medium lacking leucine, tryptophan and histidine with 1, 2.5 or 5 mM 3-AT; 5 days at 28 °C; four independent colonies for each pair.

No constants are given. Whether binding was seen depends on the method and setting. For part of these data: Binding seen in cells or lysates may run through a third protein. Some entries that bind do so weakly or less than the wild type. For part of these data: Where a sequence is shown, tags or fusion partners need not be part of it.

B1: TARGET OF FLC AND SVP 1 (TFS1/REM17) (protein, UniProt Q84WP3 1-920)
chain: MADQSLLHSPINPHFFQPILTESRTHLNIPVAFFSKHVEGRNNQNKTVTLRSDASDKTWLVKMDGLKLTDGWEDFAFAHDLRTGDIVVFRLEGEMVFHVTALGPSCCEIQYHTSSHNINDDDRNDQINIASRNSSRVKKNPRKKVESSLDHSRFVAKVSAWCLSNDRLYIPLSFARLNGLNKINSKKIYLQNEEGRSWKLVLRHDKSGMQTFVQSGWRRFCSENGIRQGQYTFKLVRKSAPPVIRLCRAKAKPKQRSVAEYSSDHSCFEGSVTPSSLRNDLLYLPRSFVNSNRLDKRCSEIVLKNEQGVKWPLVLKRFKSVTYLPKGWTSFCQVNRIKAGDSFKFKLVGTWKKPVLSLCPTQSNNHKTPLECSEGNKSEESEEDCLEVKKKKYWSRCRASVENMDDDQTNIGNSSRKKRVSKNPREKVESSSDHSSFVGSVNPSSLYKDQLYLPRNFVSSNFLDKRCSEIVLKNERGEKRTLVLKHFKKDLTFLKKGWTSFCQVNRIKAGDSFKFKLVGTWNKPVLSLCPTETNYHKTPLACSEGNKSEESEEEGTEDKNTSQDCLEVKKRKYWSTCRASAENIDDDQTNIGNSSKEKRVKKNPVKKAESSSDHSSFVANVTASSLNYDRLYLPLSFVSSNGLDKMNGKEIVLLNEEGLSWKFNLKYNQAGKHTYVRPGWSRFCDANGMSQGQQFTFKLVQKHGPPVMYLSLSEHRPKSESSSHRSYFVGSVTASSIKKDKLYLWKSFVSSNGLDKGCKKIILKNKWGREWKLVLKHYKSNCFTIIKRGWTSFCQGNGLKAGDSFKFKLVGTGEKPVLSLCPAESSHEKIPLECPEGIDDVNSLSSNPSSGDDSSRSEESEEENMEDKNISQDCLETKKRKYCSSSSYSQNRFVTLTLTRSAFQTYKLVSFFNNYASRLS
Consider B1, for which the binding result in test [1] is “no binding”; in test [2] it was “binds”.

B2: TARGET OF FLC AND SVP 1 (TFS1/REM17), BiFC fusion (protein, UniProt Q84WP3 1-920)
chain: MADQSLLHSPINPHFFQPILTESRTHLNIPVAFFSKHVEGRNNQNKTVTLRSDASDKTWLVKMDGLKLTDGWEDFAFAHDLRTGDIVVFRLEGEMVFHVTALGPSCCEIQYHTSSHNINDDDRNDQINIASRNSSRVKKNPRKKVESSLDHSRFVAKVSAWCLSNDRLYIPLSFARLNGLNKINSKKIYLQNEEGRSWKLVLRHDKSGMQTFVQSGWRRFCSENGIRQGQYTFKLVRKSAPPVIRLCRAKAKPKQRSVAEYSSDHSCFEGSVTPSSLRNDLLYLPRSFVNSNRLDKRCSEIVLKNEQGVKWPLVLKRFKSVTYLPKGWTSFCQVNRIKAGDSFKFKLVGTWKKPVLSLCPTQSNNHKTPLECSEGNKSEESEEDCLEVKKKKYWSRCRASVENMDDDQTNIGNSSRKKRVSKNPREKVESSSDHSSFVGSVNPSSLYKDQLYLPRNFVSSNFLDKRCSEIVLKNERGEKRTLVLKHFKKDLTFLKKGWTSFCQVNRIKAGDSFKFKLVGTWNKPVLSLCPTETNYHKTPLACSEGNKSEESEEEGTEDKNTSQDCLEVKKRKYWSTCRASAENIDDDQTNIGNSSKEKRVKKNPVKKAESSSDHSSFVANVTASSLNYDRLYLPLSFVSSNGLDKMNGKEIVLLNEEGLSWKFNLKYNQAGKHTYVRPGWSRFCDANGMSQGQQFTFKLVQKHGPPVMYLSLSEHRPKSESSSHRSYFVGSVTASSIKKDKLYLWKSFVSSNGLDKGCKKIILKNKWGREWKLVLKHYKSNCFTIIKRGWTSFCQGNGLKAGDSFKFKLVGTGEKPVLSLCPAESSHEKIPLECPEGIDDVNSLSSNPSSGDDSSRSEESEEENMEDKNISQDCLETKKRKYCSSSSYSQNRFVTLTLTRSAFQTYKLVSFFNNYASRLS
Consider B2, for which the binding entry in test [3] is on record as “binds”.

B3: REM13 (protein, UniProt Q9STF1 1-276)
chain: MEENSSKKKLSETMSIQDTVLKFFRVYIPNQTADDMNLPLVSDKISGKPLPRKVTVKSVSSGNIWRMEMKANGNTVFLRDGWKKIVKDENVTEPIFLEFEFDGYGVFHFCVYEYGSMCKRMRSPMEKEVIKVDSEEDVLVGNEESTKGLEESPRRGGTSRRRAKLKTKSHKIYEHLDNKLNPSFPVDMTQNRTRIPSLLIKDYNLTFPNMVIMRDKIGILKRRIVIWKNRSVYLNGIGSIIRRNHVKPGNEVVFELKMVNGYHGLVHEIKVHIIKA
B3: the binding result in test [1], in test [2] and in test [4] was “no binding” each time.
